Source: publication PMC4336329 (PLoS ONE, 2015)
Hit rate of the full screen: of about 310,000 compounds, about 2,200 (0.71%) showed an effect of 50% or more. Effects have a minus sign here. This is one part of the list.

Biological target: human ether-à-go-go-related gene (hERG) potassium channel (human, UniProt Q12809)
Assay: primary screen, population patch clamp on CHO cells stably expressing hERG

human ether-à-go-go-related gene (hERG) potassium channel, sequence (Q12809 whole entry, looked up): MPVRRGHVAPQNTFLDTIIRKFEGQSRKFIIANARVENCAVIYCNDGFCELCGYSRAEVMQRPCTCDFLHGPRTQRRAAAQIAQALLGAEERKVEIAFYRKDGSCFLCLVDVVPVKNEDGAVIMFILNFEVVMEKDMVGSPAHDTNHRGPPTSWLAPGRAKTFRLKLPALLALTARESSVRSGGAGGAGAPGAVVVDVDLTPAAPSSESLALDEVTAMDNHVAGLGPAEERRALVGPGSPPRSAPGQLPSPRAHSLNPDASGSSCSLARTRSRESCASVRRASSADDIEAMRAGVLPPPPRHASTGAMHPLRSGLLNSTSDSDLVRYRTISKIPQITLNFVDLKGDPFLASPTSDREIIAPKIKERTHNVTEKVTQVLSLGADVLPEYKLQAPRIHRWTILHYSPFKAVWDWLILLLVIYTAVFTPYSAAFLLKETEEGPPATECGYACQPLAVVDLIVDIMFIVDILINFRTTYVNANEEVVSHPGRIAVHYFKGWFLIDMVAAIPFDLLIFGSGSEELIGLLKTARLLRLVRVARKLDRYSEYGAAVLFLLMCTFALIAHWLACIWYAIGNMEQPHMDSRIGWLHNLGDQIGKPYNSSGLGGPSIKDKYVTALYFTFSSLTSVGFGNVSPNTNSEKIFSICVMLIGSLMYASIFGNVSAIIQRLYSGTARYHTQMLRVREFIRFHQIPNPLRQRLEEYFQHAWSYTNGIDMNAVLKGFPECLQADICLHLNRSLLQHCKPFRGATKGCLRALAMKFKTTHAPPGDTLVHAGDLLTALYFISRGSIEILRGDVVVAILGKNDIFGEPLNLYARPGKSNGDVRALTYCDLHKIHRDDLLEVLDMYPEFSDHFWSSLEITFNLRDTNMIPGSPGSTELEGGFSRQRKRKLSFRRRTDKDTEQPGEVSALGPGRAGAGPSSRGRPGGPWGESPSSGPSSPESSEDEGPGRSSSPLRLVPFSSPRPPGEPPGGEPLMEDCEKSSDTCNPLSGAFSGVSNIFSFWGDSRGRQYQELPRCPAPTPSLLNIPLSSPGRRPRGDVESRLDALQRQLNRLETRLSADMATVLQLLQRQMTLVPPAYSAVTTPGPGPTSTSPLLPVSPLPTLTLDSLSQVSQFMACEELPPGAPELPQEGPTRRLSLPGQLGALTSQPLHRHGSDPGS

Row | Structure (SMILES) | hERG current change (%, negative = inhibition) at 1uM [%]
1 | COC(=O)CSc1nnc(-c2ccccc2OC)n1-c1ccc(C)cc1 | 11.7
2 | O=C(COc1ccc2c(-c3ccccc3)cc(=O)oc2c1)NCCCn1ccnc1 | -22.9
3 | O=C(CSc1ccccc1)NCc1ccccc1 | 12
4 | CCN(CC(=O)Nc1ccc(NC(C)=O)cc1)C(=O)C1COc2ccccc2O1 (stereo not shown) | 5.67
5 | O=C(CN1C(=O)c2cccc3cccc1c23)NCc1ccncc1 | 1.01
6 | CC(C)C(C(=O)NCC1CCCO1)N(Cc1cccs1)C(=O)CNS(=O)(=O)c1ccccc1 (stereo not shown) | 16.1
7 | CC(C)n1cnnc1SCC(=O)NNC(=O)COc1ccc(Cl)cc1 | 26.1
8 | COc1ccccc1NC1CCCCC1NS(=O)(=O)c1ccccc1 (stereo not shown) | 8.44
9 | COc1ccccc1OCc1ccc(C(=O)Nc2ccncc2)o1 | -17.4
10 | O=C(COc1ccccc1)N1CCN(C(=O)c2cccc(F)c2)CC1 | 9.58
11 | Cc1cc(C(C)(C)C)oc1C(=O)OCC(=O)NC1CCCCC1 | -0.118
12 | CCCCOC(=O)c1ccc(NC(=O)COC(=O)CN2C(=O)NC3(CCCC3)C2=O)cc1 | 8.41
13 | CCNC(=O)COC(=O)c1[nH]c(C)c(C(=O)OC)c1C | 13
14 | CC(=O)Nc1ccc(S(=O)(=O)Nc2ccc(-n3cnnn3)cc2)cc1 | 12.1
15 | Cc1c(C#N)c(N)nc2c3c(sc12)NC(=O)CC3c1ccccc1 (stereo not shown) | 14.2
16 | O=[N+]([O-])c1ccc(N2CCNCC2)cc1NC1CC1 | -4.7
17 | CCC(c1nnnn1C(C)(C)CC)N(CCCO)Cc1cc2cccc(C)c2[nH]c1=O (stereo not shown) | -2.36
18 | Cc1ccc2c(c1)cc(CN(CCc1ccccc1)C(=O)N1CCOCC1)c1nnnn12 | -13.7
19 | Cc1ccc(N2C(=O)NC(=O)C(CCc3ccncc3)(Cc3cccc(Cl)c3Cl)C2=O)cc1 (stereo not shown) | 11.1
20 | CCOC(=O)c1[nH]c(C)c(CN(C(C)=O)c2ccc(OCC)cc2)c1C | 13.5
21 | C=CCn1c(SCc2c(C)noc2C)nc2sc3c(c2c1=O)CCCCC3 | 2.05
22 | COc1ccc(Nc2nc3ccccc3c(=O)s2)c(OC)c1 | 4.21

Row | Structure (SMILES) | hERG current change (%, negative = inhibition) at 1uM [%]
23 | Cc1ccccc1Cn1c(O)c(N=NC(=S)Nc2ccccc2F)c2ccccc21 | 2.06
24 | CCN=c1scc(-c2ccco2)n1/N=C/c1ccc(O)cc1 | 8.56
25 | O=[N+]([O-])c1ccc(COc2ccccc2/C=N/O)cc1 | 4.68
26 | COc1ccc(NC(=O)Cn2ncc(Cl)c(Cl)c2=O)cc1S(=O)(=O)N1CCOCC1 | 9.62
27 | CCn1c2ccccc2c2cc(NC(=O)COc3ccc(OC)cc3)ccc21 | 11.4
28 | Cl.NC(N)=NC(=O)Cc1c(Cl)cccc1Cl | 16.4
29 | CCOc1ccccc1N/C=C/C(=O)C(C)(C)C | 13.8
30 | Cc1ccccc1OCCNC(=O)/C=C/c1ccc([N+](=O)[O-])cc1 | -7.72
31 | NS(=O)(=O)c1cc(C(=O)NC2CCSc3ccccc32)ccc1Cl (stereo not shown) | 8.25
32 | COc1ccc(OC)c(C2=Nn3c(nnc3-c3ccncc3)SC2)c1 | 1.61
33 | CN(C)CCN=Cc1c(O)n(Cc2ccco2)c(=O)[nH]c1=O | 10.3
34 | COc1cccc(-c2cc(C(F)(F)F)nc(N3CCC(C)CC3)n2)c1 | 6.81
35 | O=c1cc(CO)oc(C(Nc2ccccn2)c2ccc(F)cc2)c1O (stereo not shown) | 7.78
36 | CCS(=O)(=O)Nc1cccc(C2=NN(S(=O)(=O)c3ccccc3)C(c3ccco3)C2)c1 (stereo not shown) | 8.57
37 | CC(C)CCC[C@@H](C)[C@H]1CC[C@H]2[C@@H]3C(=O)C=C4C[C@@H](O)CC[C@]4(C)[C@H]3CC[C@]12C | 7.94
38 | C=CCN1C(=O)c2ccccc2NC1c1cc(Br)cs1 (stereo not shown) | 6.74
39 | Cc1nn(C)c(C)c1CCC(=O)N1CCCC(C(=O)c2cccc(OC(C)C)c2)C1 (stereo not shown) | 13.6
40 | COC(=O)c1cc(C(=O)c2cc(F)ccc2O)cn2c(=O)c3c(C)c(C)sc3nc12 | 15.2
41 | Cc1cc(NC(=O)c2ccc(-c3ccccc3F)o2)no1 | 2.14
42 | COc1ccc(C(=O)Nc2ccccc2C(=O)N2CCCCCC2)cc1 | -4.15
43 | COc1cccc2cc(C(=O)Nc3ccc(S(=O)(=O)NCC4CCCO4)cc3)c(=O)oc12 (stereo not shown) | 9.6
44 | N#Cc1ccccc1S(=O)(=O)N1CCN(CC(O)CN2CCOCC2)CC1.O=C(O)C(=O)O (stereo not shown) | -3.23

Row | Structure (SMILES) | hERG current change (%, negative = inhibition) at 1uM [%]
45 | C=CCc1cc(OC)ccc1OCC(O)CN1CCN(c2ccc(OC)cc2)CC1 (stereo not shown) | -27.1
46 | O=C(OCN1C(=O)c2ccccc2C1=O)c1ccco1 | 4.36
47 | O=C(COC(=O)c1ccc([N+](=O)[O-])s1)Nc1ccccc1 | 2.64
48 | O=C(CC12CC3CC(CC(C3)C1)C2)N1CCCC1 | 13
49 | CCCN1C(=S)c2ccccc2C1c1ccccc1 (stereo not shown) | 10.1
50 | Cc1ccccc1-n1c(N)cc(=O)[nH]c1=S | 15.6
51 | Cc1ccc(CCN2CC(C(=O)N3CCC4(CC3)OCCO4)CC2=O)cc1 (stereo not shown) | 9.61
52 | CNC(=O)c1c(Cl)cnn1-c1ccccc1 | 10.5
53 | O=c1[nH]c2ccccc2c(=O)n1-c1ccc(Cl)cc1Cl | 3.26
54 | CC(Sc1nnc(Nc2ccccc2)s1)C(=O)NC1CCCc2ccccc21 (stereo not shown) | 8.67
55 | C/C(=N\N=C(c1ccccc1)c1ccccc1)c1ccco1 | 5.46
56 | CC1(C)Cc2c(cnn2-c2ccc(F)cc2)C(NC(=O)CN2CCCC2=O)C1 (stereo not shown) | 11.4
57 | CN1CCN(C(=S)Nc2ccccc2Cl)CC1 | 8.28
58 | O=C(CN1c2ccccc2Sc2ccccc21)NNC(=S)Nc1ccc(Cl)cc1Cl | 6.37
59 | Cc1ccc(S(=O)(=O)N2CCN(Cc3nnc(-c4c(-c5ccccc5)noc4C)o3)CC2)cc1 | -13.8
60 | CCOC(=O)c1sc(-c2ccc(Cl)cc2)nc1O | 6.13
61 | O=C(Cn1nc2n(c1=O)-c1ccccc1SC2)N/N=C/c1cccs1 | 13.3
62 | O=S(=O)(NCc1ccc2c(c1)OCO2)c1ccc(F)cc1 | 4.07
63 | COC(=O)c1ccc(NC(=O)c2ccccc2NS(=O)(=O)c2ccccc2)cc1 | 16.5
64 | COc1ccc(/C=C/c2nc(-c3ccccc3O)n[nH]2)cc1 | 0.893
65 | CCOc1cc(C(=O)N2CCC3(CC2)NCCc2[nH]cnc23)cc(OCC)c1OCC | 19.1
66 | CCOc1ccc(S(=O)(=O)NC2=NCCCCC2)cc1 | 21.5

Row | Structure (SMILES) | hERG current change (%, negative = inhibition) at 1uM [%]
67 | Br.COc1ccc(-c2cn3ccccc3n2)cc1OC | 4.44
68 | Br.CCn1c(=N)n(CC(=O)c2ccc(OC)c(OC)c2)c2ccccc21 | -2.14
69 | Fc1cccc(NC(=S)N2CCc3ccccc32)c1 | 13.3
70 | O=[N+]([O-])c1ccc(Sc2n[nH]c(-c3ccc(Cl)cc3Cl)n2)nc1 | 1.2
71 | Cc1ccc(S(=O)(=O)N2[C@@H](c3cccc(Cl)c3)C(C(=O)O)=CC[C@H]2c2cccs2)cc1 | 14.9
72 | CC1CCN(c2ncccc2C(=O)O)CC1 | -3.9
73 | COc1ccc(C)cc1-n1nnnc1SCC1CCCCO1 (stereo not shown) | 2.96
74 | O=C(CSC1=NC(=O)C(Cc2ccccc2)C(=O)N1)NC1CCCCC1 (stereo not shown) | 13.5
75 | COc1ccc(C(=O)c2c[nH]c(C(=O)NCc3cccnc3)c2)cc1 | -6.26
76 | COc1ccc(-c2csc3ncnc(N4CCN(c5ccccc5Cl)CC4)c23)cc1 | 14.8
77 | COc1ccc(Cl)cc1C(=O)NC(=S)Nc1nc(C)cc(C)n1 | 17
78 | COc1cccc(C2c3c(-c4ccccc4O)n[nH]c3C(=O)N2Cc2ccco2)c1 (stereo not shown) | 0.477
79 | Cc1sc2ncn(CC(=O)N(CC(=O)NC3CCCC3)Cc3cccs3)c(=O)c2c1C | -3.65
80 | Cn1cccc1-c1nc2ccc(NC(=O)c3ccco3)cc2[nH]1 | -3.04
81 | COc1ccc(C(=O)N/N=C(\C)CC(=O)Nc2ccc3ccccc3c2)c(OC)c1 | 16.7
82 | COc1ccc(CC(=O)OCn2nnc3ccccc3c2=O)cc1OC | 7.17
83 | NC(=O)CCCSc1nc2ccccc2[nH]1 | 14.3
84 | COc1ccc(OCC(O)CNC(C)c2ccccc2)cc1.Cl (stereo not shown) | 9
85 | NS(=O)(=O)c1ccc(NNC(=O)c2ccccc2)cc1 | 12.6
86 | O=C(c1ccco1)N1CCN(C(=O)c2ccccc2NS(=O)(=O)c2ccc(F)cc2)CC1 | -2.06
87 | NC(=O)NC(=O)COC(=O)c1cccc(S(=O)(=O)N2CCCCCC2)c1 | 12.3
88 | O=C(COC(=O)C1CCN(S(=O)(=O)c2cccc3cccnc23)CC1)c1ccc([N+](=O)[O-])cc1 | 8.06
